Assay results: PubChem BioAssay AID652106 (National Center for Advancing Translational Sciences (NCATS), 2013)
The campaign covered roughly 370,000 compounds. About 500 (0.14%) were called active. Inconclusive means that the source gave no clear call. Such entries were picked first, then a sample of the others. The call rests on the fitted dose curve; in most records, active means well fitted activation curve with a large enough effect; inconclusive means small, poorly fitted or top-dose-only effect; inactive means no such curve, though single readings can be large or run the other way. Potencies of inconclusive entries are left out as doubtful fits.

assay: qHTS of alpha-syn Inhibitors; settings: Yeast expressing alpha-synuclein, BacTiter-Glo, 24 h; Potency: growth rescue unless noted; series mostly up to 46.1 µM; further: nearly all actives have a fitted effect of over 65% in size
In short: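 Readout is rescue of growth in alpha-synuclein-expressing yeast, so inhibitors of toxicity appear as activators. Growth after 24 hr at 30 deg C in galactose medium is quantified by luminescence.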
Potency means the concentration at half of the fitted maximal effect; tags describe the fitted curve by direction and shape.

Row | SMILES | Potency
1 | Nc1ccc2nc(SCc3cccc(F)c3)sc2c1 | inconclusive [activator, single point]
2 | O=C1CC(c2ccco2)CC2=C1C(c1ccc(O)cc1)n1nc(C(F)(F)F)nc1N2 (configuration not stated) | inactive
3 | O=C(CSc1nnc(CNC(=O)c2ccccc2)o1)NCc1ccc2c(c1)OCO2 | inactive
4 | Cc1ccc(C(=O)C(O)C(c2ccc(C)cc2)N2CCCCC2)cc1 (configuration not stated) | inactive
5 | Clc1cccc(NCc2nnc(SCc3ccccc3Cl)o2)c1 | active: 20 µM
6 | CC(NC(=O)C1CCCC1)C1CC2CCC1C2 (configuration not stated) | inactive
7 | O=C(NC1CCCCC1)c1ccc2[nH]c(=O)c(=O)[nH]c2c1 | inconclusive [activator, single point]
8 | CCOC(=O)c1ccccc1NC(=O)Cc1c(C(=O)O)n(C)c2ccccc12 | inconclusive [activator, partial curve]
9 | COc1ccc(OC)c(Nc2nc(-c3ccc(O)c(O)c3)cs2)c1 | active: 11.2 µM
10 | CC(C)C[C@H](NC(=O)c1nc[nH]c1C(=O)NC1CCN(C(=O)OC(C)(C)C)CC1)C(=O)OCc1ccccc1 | inactive
11 | N#Cc1ccc(C(C(=O)Nc2ccc3c(c2)OCCO3)n2c(=O)c(-c3ccco3)nc3ccccc32)cc1 (configuration not stated) | inconclusive [activator, single point]
12 | COCOCCn1cc(CN2CCS(=O)(=O)N(Cc3ccc(-c4ccc(Cl)cc4)cc3)C(C)C2=O)nn1 (configuration not stated) | inconclusive [activator, single point]
13 | COc1ccccc1N1CCN(C(=O)c2ccc3[nH]c4c(c3c2)CC(C)CC4)CC1 (configuration not stated) | inconclusive [activator, single point]
14 | COc1cc(CN2CCNC(=O)C2CC(=O)N(C)CCCN2CCOCC2)cc(OC)c1 (configuration not stated) | inconclusive [activator, single point]
15 | O=C(N/N=C(\c1ccccc1)c1ccccn1)c1cccc([N+](=O)[O-])c1 | inconclusive [activator, single point]
16 | C/C(=N\O)c1cc(Cl)cc(Cl)c1O | inconclusive [activator, partial curve]
17 | Fc1cccc(Cc2c(-c3ccco3)nc3c4ccccc4ccn23)c1 | inactive
18 | Cc1cccc(C)c1-n1nnnc1C1(C)CCC(=O)N1Cc1cccs1 (configuration not stated) | inconclusive [activator, partial curve]
19 | O=C(/C=C/c1c(F)cccc1Cl)N1CCc2ccccc2C1 | inconclusive [activator, single point]
20 | O=C(NNC(=S)Nc1ccc(Cl)cc1)c1ccccc1OC(F)F | inconclusive [activator, single point]
21 | Cc1ccc(C(=O)NCCSc2c(C)[nH]c3ccccc23)cc1[N+](=O)[O-] | inconclusive [activator, single point]
22 | Cc1ccc2oc(-c3ccc(C)c(NC(=O)/C=C/c4ccc(Cl)cc4)c3)nc2c1 | inactive
23 | Cc1ccccc1-c1cc2nc(NCc3ccc4occc4c3)n(C)c(=O)c2s1 | inconclusive [activator, single point]

Row | SMILES | Potency
24 | CCOc1ccc(NC(=O)c2cnsn2)cc1 | inactive
25 | Cc1cccc(Cn2c(SCCN3CCCCC3)nc3c2c(=O)[nH]c(=O)n3C)c1 | inconclusive [activator, single point]
26 | COc1cc(NC(=S)Nc2ccccn2)cc(OC)c1OC | inconclusive [activator, single point]
27 | CC(=O)O[C@]1(C(C)=O)CC[C@H]2[C@@H]3C[C@H](C)C4=CC(=O)CC[C@]4(C)[C@H]3CC[C@@]21C | inconclusive [activator, single point]
28 | C[C@H]1CN([C@@H](C)CO)S(=O)(=O)c2ccc(Br)cc2O[C@@H]1CN(C)C(=O)Cc1cccnc1 | inconclusive [activator, single point]
29 | COc1ccc(Cl)cc1C(=O)Nc1nnc2n1CCS2 | inconclusive [activator, single point]
30 | CC(C)(C)c1ccc(C(O)c2ncc(-c3ccc4ccccc4c3)[nH]2)cc1 (configuration not stated) | inconclusive [activator, single point]
31 | Cc1nn(-c2cccc(Cl)c2)c2nc(-c3ccncc3)cc(C(=O)N3CCOCC3)c12 | inconclusive [activator, single point]
32 | Cc1[nH]c2ccccc2c1Cc1nnc(SCc2ccccc2)o1 | inconclusive [activator, single point]
33 | COC(=O)CCC(=O)NC(=S)Nc1ccc(S(=O)(=O)Nc2cc(C)on2)cc1 | inconclusive [activator, single point]
34 | COc1ccc(-c2cnc3c(NC(C)=O)cc(-c4cccc(C(=O)NCCN(C)C)c4)cn23)cc1OC | inconclusive [activator, single point]
35 | C[C@@H]1CN([C@@H](C)CO)C(=O)c2cc(Br)cnc2O[C@H]1CN(C)C(=O)NC1CCCC1 | inconclusive [activator, single point]
36 | Cn1c(N)c(C(=O)CSc2nnnn2-c2ccccc2)c(=O)n(C)c1=O | inconclusive [activator, single point]
37 | CCCCc1nc2ccc(F)cc2cc1C | inconclusive [activator, single point]
38 | CCc1cc(Cn2nc(-c3ccccc3)cc2C(=O)NCCOC)on1 | inactive
39 | Cc1ccc(S(=O)(=O)N2CCOCC2)cc1C(=O)NCc1ccc(F)cc1 | inconclusive [activator, single point]
40 | CCOC(=O)c1c(NC(=O)CSc2cn(CC)c3ccccc23)sc2c1CCC2 | inconclusive [activator, single point]
41 | COc1ccc(-c2ccc3c(c2)O[C@H](CN(C)C(=O)Nc2ccccc2F)[C@@H](C)CN([C@H](C)CO)S3(=O)=O)cc1 | inconclusive [activator, single point]
42 | CCN(CC)C(=O)CSc1nc2cc3c(cc2c(=O)n1CCCC(=O)NCc1ccc(OC)cc1)OCO3 | inactive
43 | Cc1ccc(NC(=O)c2ccco2)c(NC(=O)C2CCCO2)c1 (configuration not stated) | inconclusive [activator, single point]
44 | O=C(CCCN1C(=O)[C@H]2CC=CC[C@H]2C1=O)NCc1nc(-c2ccc(Cl)cc2)no1 | inconclusive [activator, single point]
45 | O=C(NCCCn1ccnc1)c1sc2cc([N+](=O)[O-])ccc2c1Cl | inconclusive [activator, single point]
46 | C=CCC(=O)OCCCCCCOc1ccc(C(=O)O)cc1 | inactive

Row | SMILES | Potency
47 | Cc1cccc(NC(=O)CSCC(=O)N2CCN(c3cccc(C(F)(F)F)c3)CC2)c1 | inconclusive [activator, single point]
48 | CCOC(=O)N1CCN(c2ccncc2S(=O)(=O)N2CCCCC2)CC1 | inconclusive [activator, single point]
49 | CCCCn1c(N)c(N(CCOC)C(=O)c2oc3c(Cl)cccc3c2C)c(=O)[nH]c1=O | inconclusive [activator, single point]
50 | CC(C)(C)c1cc(NC(=O)COc2ccc(Br)cc2)n(-c2ccccc2)n1 | inactive
51 | O=C(c1c(Cl)nc2sccn12)N(C(=O)c1c(Cl)nc2sccn12)c1ccc(Cl)cn1 | inconclusive [activator, single point]
52 | C#CCOCCOCCOCCNc1nc(N2CCN(C(=O)CCCCCCCCCCNC(=O)[C@H](CCCCN)n3cc(CCCC(=O)O)nn3)CC2)nc(N2CCN(C(=O)CCCCCCCCCCNC(=O)[C@H](CCCN=C(N)N)n3cc(C[C@@H](C)CC)nn3)CC2)n1 | inactive
53 | CN(C)c1ccc(C=O)c(F)c1 | inactive
54 | COc1cc(OC)c2c(-c3cccc(-c4ccc(CO)cc4)c3)cc(=O)oc2c1 | inconclusive [activator, single point]
55 | O=Nc1c(O)n(Cc2ccc(Cl)c(Cl)c2)c2ccccc12 | active: 12.6 µM
56 | CCOC(=O)C1=C(c2ccccc2)Nc2ncnn2C1c1ccc(C(=O)O)cc1 (configuration not stated) | inactive
57 | Nc1ccc(-c2cc3ccccc3[nH]2)cc1 | inconclusive [activator, single point]
58 | COC(=O)c1c(NC(=O)CCCOc2ccccc2C)sc2c1CCC(C)C2 (configuration not stated) | inconclusive [activator, single point]
59 | Cn1c(SCc2ccc(Br)cc2)nnc1-c1cccs1 | inactive
60 | COc1ccc(N2CCN(C(=S)NC(=O)c3cccs3)CC2)c([N+](=O)[O-])c1 | inactive
61 | Cc1c(C(=O)NCc2cccc(C(F)(F)F)c2)sc(=O)n1Cc1ccc(F)cc1 | inconclusive [activator, single point]
62 | O=C(OCn1nnc2ccccc2c1=O)c1ccc(O)cc1 | inconclusive [activator, single point]
63 | Nc1nnnn1NCc1cccc(OCc2ccccc2)c1 | inactive
64 | O=C(NC1CCCN(c2ccc(C(F)(F)F)cn2)C1)c1cc(Cl)ccc1F (configuration not stated) | inactive
65 | Cc1nc(-c2ccc3c(c2)OCO3)cs1 | inactive
66 | Cc1ccc(NC(=O)CN(c2cc(C)cc(C)c2)S(=O)(=O)c2c(C)noc2C)nc1 | inconclusive [activator, single point]
67 | Cc1cccc(N2C(=O)CC(N3CCN(c4ccccc4)CC3)C2=O)c1 (configuration not stated) | inconclusive [activator, single point]
